Test results reported in US20250375499A1 (FLAGSHIP PIONEERING INNOVATIONS VII, published 2025).
Values joined by “and” are separate entries in the source; they are usually repeats but may differ in a detail not shown here. Equal entries are not always repeated.

Experiments:
[1] = target: T1, TL1A monomer (Acro Biosystems TLA-H5246) (human, UniProt O95150 72-251, limits assumed); assay: SPR Biacore T200, IIFP captured by anti-human Fc, TL1A as analyte, 1:1 fit, 25 C
T1 construct: Bought protein; also called Monomer TL1A; monomeric human TL1A
T1 sequence: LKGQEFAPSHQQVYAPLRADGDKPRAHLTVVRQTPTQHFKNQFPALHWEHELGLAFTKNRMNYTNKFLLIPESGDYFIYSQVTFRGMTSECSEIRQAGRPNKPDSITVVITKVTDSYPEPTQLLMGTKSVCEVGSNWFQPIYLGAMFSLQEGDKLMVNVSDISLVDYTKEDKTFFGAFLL

[2] = target: T2, TL1A trimer (Acro Biosystems TLA-H5243) (human, UniProt O95150 72-251); assay: as above
T2 construct: Bought protein; also called Trimer TL1A; trimeric human TL1A
T2 sequence: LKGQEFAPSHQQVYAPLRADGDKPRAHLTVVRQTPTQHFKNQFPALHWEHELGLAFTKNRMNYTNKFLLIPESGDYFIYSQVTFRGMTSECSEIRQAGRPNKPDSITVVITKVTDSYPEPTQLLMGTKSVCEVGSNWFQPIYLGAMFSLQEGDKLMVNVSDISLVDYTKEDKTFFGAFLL

[3] = target: T3, recombinant human TL1A (Acro Bio TLA-H5244), plate bound (human, UniProt O95150 72-251, limits assumed); assay: ELISA: plate coated with recombinant human TL1A (2 µg/mL), Fc-tagged protein titrated 2-fold from 20 nM, anti-human Fc HRP, four-parameter fit
T3 construct: Bought protein; also called hTL1A; Tumor Necrosis Factor Ligand Superfamily Member 15
T3 sequence: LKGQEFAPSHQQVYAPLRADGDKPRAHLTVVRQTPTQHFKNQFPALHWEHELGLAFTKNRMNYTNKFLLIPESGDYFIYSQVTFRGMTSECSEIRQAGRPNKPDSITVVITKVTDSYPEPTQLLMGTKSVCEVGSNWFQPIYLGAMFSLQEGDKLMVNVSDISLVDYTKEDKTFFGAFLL

[4] = target: T3, recombinant human TL1A (Acro Bio …); assay: ELISA: plate coated with recombinant human TL1A (2 µg/mL), Fc-tagged protein titrated 3-fold from 10 nM, anti-human Fc HRP, OD 450 nm background subtracted
[5] = target: T4, recombinant human TNFα (Acro Bio TNA-H5228) (human, UniProt P01375 partial chain); assay: ELISA: plate coated with recombinant human TNFα (2 µg/mL), Fc-tagged protein titrated 3-fold from 10 nM, anti-human Fc HRP, OD 450 nm background subtracted
T4 construct: Bought protein; also called hTNFα

[6] = target: T5, recombinant human FASL (Acro Bio HAL-H5241) (human, UniProt P48023 134-281, limits assumed); assay: ELISA: plate coated with recombinant human FASL (2 µg/mL), Fc-tagged protein titrated 3-fold from 10 nM, anti-human Fc HRP, OD 450 nm background subtracted
T5 construct: Bought protein; also called hFASL; FAS Ligand
T5 sequence: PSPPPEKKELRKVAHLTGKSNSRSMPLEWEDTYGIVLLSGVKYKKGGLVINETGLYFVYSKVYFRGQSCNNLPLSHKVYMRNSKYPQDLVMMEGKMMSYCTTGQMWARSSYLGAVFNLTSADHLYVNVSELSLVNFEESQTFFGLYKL

[7] = target: T6, recombinant human LIGHT (Acro Bio LIT-H5242) (human, UniProt O43557 83-240, limits assumed); assay: ELISA: plate coated with recombinant human LIGHT (2 µg/mL), Fc-tagged protein titrated 3-fold from 10 nM, anti-human Fc HRP, OD 450 nm background subtracted
T6 construct: Bought protein; also called hLIGHT; Tumor Necrosis Factor Ligand Superfamily Member 14

[8] = target: T3, recombinant human TL1A (Acro Bio …); assay: ELISA, plate-coated recombinant hTL1A (Example 3)

T6 sequence (O43557 83-240 limits assumed): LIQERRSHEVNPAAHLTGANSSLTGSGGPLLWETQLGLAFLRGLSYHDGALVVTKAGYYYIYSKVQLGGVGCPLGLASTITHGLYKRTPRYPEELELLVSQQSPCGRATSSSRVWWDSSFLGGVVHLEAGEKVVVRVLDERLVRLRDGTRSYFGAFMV
T4 sequence (P01375 77-233 limits assumed): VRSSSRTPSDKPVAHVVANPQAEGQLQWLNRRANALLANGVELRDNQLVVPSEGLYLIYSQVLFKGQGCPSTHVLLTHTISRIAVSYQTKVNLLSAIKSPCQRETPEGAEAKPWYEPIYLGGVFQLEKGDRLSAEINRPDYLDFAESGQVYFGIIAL

Binder	Kd [1]	koff [1]	kon [1]	Kd [2]	koff [2]	kon [2]	EC50 (read off the curve) [3] [nM]	EC50 (read off the curve) [4] [nM]	binding result [5]	binding result [6]	binding result [7]	EC50 [8]
Immunoreceptor inhibitory fusion protein 2 (IIFP-2) (Fc fusion, Mature form without the hIL-2 signal peptide) [human IgG4 Fc with S228P F234A L235A (EU numbers) and a few adjoining residues left out]GGGGGGGSGGGGSGGGGSSTYRVRSSGLTCSTCPPGTHKERDCSLNTETICKACGEGEYTAHNNSLPKCLACKSCFNATEIETKSCDPTSDTICACREGYSINNLGECN	> 0.034 nM and < 0.073 nM	> 4.2e-05 s⁻¹ and < 1.7e-05 s⁻¹	> 520000 M⁻¹ s⁻¹ and < 570000 M⁻¹ s⁻¹	> 0.011 nM and < 0.015 nM	> 2.9e-05 s⁻¹ and < 2.2e-05 s⁻¹	> 1.9e+06 M⁻¹ s⁻¹ and < 2.1e+06 M⁻¹ s⁻¹	~0.2	~0.2	no binding (tested: 10 nM (LOG[Dose] 1))	no binding (tested: 10 nM (LOG[Dose] 1))	no binding (tested: 10 nM (LOG[Dose] 1))	
Immunoreceptor inhibitory fusion protein 32 (IIFP-32) (Fc fusion) [human IgG4 Fc with S228P F234A L235A (EU numbers) and a few adjoining residues left out]GGGGGGGSGGGGSGGGGSMSTYNTKTSPSLKCDMCPPGYYKHEDCTSNTKTVCSPCGEGEYTAYNNSLTKCLRCSDCYGENEITTKQCTNTSNTVCECMDGYTKDETIDACIK	< 0.071 nM		> 730000 M⁻¹ s⁻¹ and < 810000 M⁻¹ s⁻¹	> 0.005 nM and < 0.008 nM	> 2.5e-05 s⁻¹ and < 1.6e-05 s⁻¹	> 3.1e+06 M⁻¹ s⁻¹ and < 3.4e+06 M⁻¹ s⁻¹	~1					≥ 0.5 nM and ≤ 1 nM
